Publication PMC4558515, “Exploring the role of MKK7 in excitotoxicity and cerebral ischemia: a novel pharmacological strategy against brain injury” (Cell Death & Disease, 2015)

Columns and labels:
[1] = test system: thromboembolic occlusion of the MCA in rats; assay: Thromboembolic ischemia model, infarct volume by TTC staining; type: in vivo, Sprague–Dawley rats; details: 11 mg/kg, 30 min before lesion, 24 h post lesion
Description: Figure 7 GADD45β-I peptide protects against thromboembolic ischemia. Rats were pre-treated with vehicle (a) or GADD45β-I (11 mg/kg, 30 min before lesion) (b) and killed 24 h post lesion. Brains from control (a) and GADD45β−I-treated (b) rats were extracted and colored with TTC staining to show ischemic region. Images 6A–B are TTC-stained representative slices of the two experimental groups (scale bar=1 mm). In addition, we show a full reconstruction of the lesion size (blue shade on gray) obtained with contour analysis through Neurolucida software. (c) Percentage of ischemic volume was measured with Neurolucida software and Cavalieri's geometry Treated animals were compared with untreated animals. Data represent mean±S.D. (Student's t-test **P<0.05, n=3)
All treated rats underwent ICV administration (−1 AP, +2 ML, −3 DV), 30 min before or 6 h post lesion, of GADD45β-I (11 μg/μl) ipsilaterally to the lesion. […] Injection (2 μl volume) was made with a graduate glass pipette through an osmotic pump to minimize side effects.
Male adult Sprague–Dawley rats (Harlan, Lesmo, Italy) weighing 270–350 g were used in this study. […]

[2] = test system: thromboembolic occlusion of the MCA in rats; assay: Thromboembolic ischemia model, functional neuroscore; type: in vivo, Sprague–Dawley rats; details: 30 min before ischemia; 24 h after ischemia, versus control group; 5-point scale (Longa)
Description: Part II. Thromboembolic ischemia (n=7). Ischemia was induced by injection of autologous blood clots in suspension into the internal carotid artery (ICA), as described by Busch et al.[51] In order to prepare blood clots for embolism, femoral arterial blood from a donor rat was collected into a 20-cm long PE-50 catheter and retained for 2 h at room temperature, and subsequently at 4 °C for 22 h to allow clot formation to go to completion. Clots were pushed out of the catheter with a saline-filled syringe, rinsed several times in a Petri dish containing phosphate-buffered solution (PBS, pH 7.4), in order to remove blood cells and obtain a white clot, then inspected under the microscope to select fibrin-rich fragments. These fragments were cut into 2-mm-long pieces and transferred into a solution containing 1 mg/ml albumin in PBS, to allow clot retraction. Approximately 2 h later, 20 fibrin-rich fragments were drawn up in the albumin solution in 1-m-long PE50 catheter, taking care to maintain ~3 cm distance between clots in order to keep them apart, and all embolized into MCA origin.
After a longitudinal incision of 2 cm in length in the midline of the ventral cervical skin, left CCA, ICA and external carotid artery (ECA) were carefully dissected and exposed, avoiding any damage to the adjacent vagus nerve. […]

[3] = test system: cortical neurons (100 μM NMDA-induced excitotoxicity); assay: LDH assay, neuroprotection against NMDA-induced excitotoxicity; details: for protection against NMDA insult (LDH): 100 μM NMDA, n=6

TAT-spacer-GADD45β60–86: cell-permeable MKK7 inhibitor peptide with spacer between TAT and GADD45β residues 60–86
reduction of infarcted volume [1]: 50%
percentage of ischemic lesion on the whole brain volume ([1]; mean±S.D., n=3, control 18.88±4.38% (n=4)): 9.47±1.96%
functional neuroscore, in words [2]: significant improvements of the functional neuroscore
protection against NMDA insult (LDH) ([3]; 1 μM peptide added 30 min before NMDA, 6 h): 53%
protection against NMDA insult (LDH) ([3]; 2.5 μM peptide added 30 min before NMDA, 6 h): 64%
protection against NMDA insult (LDH) ([3]; 5 μM peptide added 30 min before NMDA, 12 h): 56%
neuroprotective effect against excitotoxicity compared with TAT-GADD45β69–86, in words ([3]; in vitro): more potent neuroprotective effect against excitotoxicity
